Results taken from the supplement of paper PMC3334620.
Over roughly 33,000 sequences, “E-score (-0.5 to 0.5)” has its median near -0.04; the highest 2% begin near 0.36. Some of the results follow.

Molecular target: T1, Hmlalpha2 (UniProt P0CY09)
T1 sequence: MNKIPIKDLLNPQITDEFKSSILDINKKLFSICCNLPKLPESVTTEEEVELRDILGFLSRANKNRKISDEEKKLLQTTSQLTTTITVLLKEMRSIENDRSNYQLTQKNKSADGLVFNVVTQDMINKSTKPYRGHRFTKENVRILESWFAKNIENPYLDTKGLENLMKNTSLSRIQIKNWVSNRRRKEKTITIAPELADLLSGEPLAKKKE
Test: PBM E-score (8-mer binding enrichment) (E-score (-0.5 to 0.5)); higher = stronger / more preferred TF binding; most listed sequences are background and not binding sites
Details: protein concentration: 200 nM; construct: GST-full length
Method in brief: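 Detection of bound protein used fluorescent anti-GST, with scans normalised by masliner. The proteins were GST-tagged yeast transcription factors applied at about 100-200 nM to universal all-10-mer Agilent arrays made double-stranded by primer extension. Each ungapped eight-base word, pooled with its reverse complement, was scored with an E-score from the Universal PBM Analysis Suite.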

Row | Sequence | PBM E-score
1 | CACTATGA | -0.0782
2 | ATCAAACG | 0.0386
3 | GCGATCGA | -0.00251
4 | ACTTCGGC | -0.151
5 | ATTGAAAA | 0.116
6 | GCTAATTA | 0.183
7 | ATCCCGAT | -0.152
8 | ACCCTTCC | -0.197
9 | CAGATTCA | 0.0122
10 | GATTCTGC | 0.0533
11 | GTGGTAAA | 0.215
12 | ACCGTGCA | 0.0448
13 | CCAACTAA | 0.00974
14 | AACATCTA | 0.178
15 | CCAGAATA | 0.146
16 | AAAAACTC | 0.121
17 | CCACTTCA | -0.0825
18 | CACGGTCC | -0.0755
19 | ATTACTGC | 0.146
20 | GTAGAGAA | 0.0859
21 | AGCTCCCA | -0.128
22 | CGGTTTAA | 0.151

Row | Sequence | PBM E-score
23 | CGTTAGGA | 0.0405
24 | ACGCCCAT | -0.152
25 | CACTATTA | 0.00891
26 | CATCAGAC | 0.0141
27 | CGATATTA | 0.17
28 | ACCCATGG | -0.19
29 | GCAGAAAA | 0.022
30 | CCATGAGG | -0.313
31 | CGGAAGAC | 0.0635
32 | CTTTAGCA | 0.0763
33 | GCCTTAAA | -0.0607
34 | AAGTTGGA | 0.147
35 | ACATGTGG | 0.312
36 | CGCGGCCC | -0.135
37 | GAGCTGAC | 0.0032
38 | CTTTCATC | -0.277
39 | TCATACGA | 0.0853
40 | AGCTTCGA | -0.0162
41 | AGGATTCG | -0.204
42 | CATGAGTA | 0.0464
43 | TCTGGACA | 0.106
44 | ACTGTCTC | -0.116

Row | Sequence | PBM E-score
45 | ACTTAAGT | 0.129
46 | ATTGTGCG | -0.182
47 | ACAGAGCG | -0.0568
48 | GAGGGGAC | -0.247
49 | CATTACCG | 0.0899
50 | CGATTAAC | 0.149
51 | ACACATCA | 0.183
52 | ACAGACCG | -0.0549
53 | CCCGTCTA | -0.0269
54 | AATGGCAG | -0.113
55 | ACATAACA | 0.434
56 | AGGTGACA | -0.0537
57 | ATGCCTTA | 0.0144
58 | ATATTTGA | -0.0277
59 | AGTCACCA | -0.307
60 | AATCATGT | 0.409
61 | GGTCCTCA | -0.147
62 | GCCCATGA | -0.165
63 | GCACGCCC | -0.0771
64 | GAGTTTGC | -0.105
65 | CACTTAAG | 0.23
66 | ACGGCCCT | -0.0414

Row | Sequence | PBM E-score
67 | ATGGTGCG | -0.0621
68 | CTAAGCTC | -0.0168
69 | CTCAACAG | 0.0165
70 | CTATCTTA | -0.0412
71 | GCTAAATA | 0.199
72 | CCGGGTGC | -0.315
73 | CAAATGTA | 0.35
74 | CCGACCCG | -0.21
75 | GACGATTA | 0.15
76 | GGAGTTAC | 0.00707
77 | AATCACAC | 0.274
78 | CACCCCGG | -0.197
79 | GAAGACGC | -0.11
80 | AGGTTACT | -0.0215
81 | CAGCGGAA | -0.0993
82 | GTCAGAAC | -0.0822
83 | CAATATCA | 0.0195
84 | ACCCGGGA | -0.0806
85 | GCGGAGTA | -0.109
86 | CACAATCG | 0.0223
87 | CCGCTAAC | -0.116
88 | GAAACAGC | -0.195

Row | Sequence | PBM E-score
89 | TAGGCGCA | -0.225
90 | CCATGGCA | -0.178
91 | CCTGCTAC | -0.0531
92 | ACAGAACA | 0.227
93 | ACTCCGCA | -0.162
94 | AATGGGCC | -0.229
95 | ATCACAGC | 0.0989
96 | CCCTGATC | -0.332
97 | CGAGAAGC | -0.189
98 | CCCATCAC | -0.00452
99 | ACCGGTCG | -0.156
100 | CTGTCATA | 0.126
101 | GAGGCACA | -0.223
102 | AGGAGGCG | -0.247
103 | TAAGCGTA | 0.0965
104 | CGCGGTTC | 0.0441
105 | AGGGGCTC | -0.235
106 | GCCCAGTA | -0.0698
107 | TACCCTCA | -0.219
108 | GTTACAAA | 0.303
109 | AAGGTACC | -0.181
110 | CCAGCGCA | -0.209
